# Laboratory results taken from the supplement of paper PMC10037445.
# “And” between values parts separate entries of the source, which are not always exact repeats. Identical values can stand only once. ± gives the standard deviation of the averaged measurements. Whole data set: some 2,900 compounds, median “IRF Lucia reporter activity, fold change vs agonist alone” near 0.9, cut for the highest 2% near 2.8. This is one part of the list.
# Key:
# [1] = test system: RAW-Dual; assay: IRF Lucia reporter activity, fold change vs agonist alone; higher = enhanced IRF activity; settings: agonist: MPLA (TLR4) […]
# How it was run: (§1)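 After 50 nL of library stock was delivered by pin tool to RAW-Dual macrophages (50,000 cells/well, DMEM, 384-well plates), a PRR agonist was added 1 h later and the plates were kept at 37 °C, 5% CO2. Twenty hours later, IRF was read from supernatant by QuantiLuc luminescence and NF-κB by QuantiBlue absorbance at 620 nm. Reporter activity is stated as fold change over agonist-alone wells. Wells with IncuCyte confluency under 70% of agonist controls in both mask sets were counted as cytotoxic.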
# [2] = test system: RAW-Dual; assay: IRF Lucia reporter activity, fold change vs agonist alone; cytotoxicity flag (confluency mask): not cytotoxic; higher = enhanced IRF activity
# How it was run: as §1
# [3] = test system: RAW-Dual; assay: IRF Lucia reporter activity, fold change vs agonist alone; cytotoxicity flag (confluency mask): cytotoxic (confluency <70% of control); higher = enhanced IRF activity
# How it was run: as §1
# [4] = library stock concentration (final ~1000-fold dilution): 10 mM, cytotoxicity flag (confluency mask): not cytotoxic
# [5] = agonist: 3'3'-cGAMP (STING) 10 ug/mL
smiles,measurement,setting,value
O=c1[nH]c(=O)c2nc3ccccc3nc2[nH]1,IRF Lucia reporter activity,"[1]; library stock concentration (final ~1000-fold dilution): 2 mM, cytotoxicity flag (confluency mask): not cytotoxic",1
COC(=O)C1=C(C)NC(C)=C(C(=O)OC(C)(C)CN(C)CCC(c2ccccc2)c2ccccc2)C1c1cccc([N+](=O)[O-])c1.Cl (stereo not given),IRF Lucia reporter activity,[1]; [4],2.1
COC(=O)C1=C(C)NC(C)=C(C(=O)OC(C)(C)CN(C)CCC(c2ccccc2)c2ccccc2)C1c1cccc([N+](=O)[O-])c1.Cl (stereo not given) (library stock concentration (final ~1000-fold dilution): 10 mM),IRF Lucia reporter activity,[2]; [5],0.139
same,IRF Lucia reporter activity,[2]; agonist: LPS (TLR4) 0.1 ug/mL,3.23
CC1COCCN1c1cc(C2(S(C)(=N)=O)CC2)nc(-c2ccnc3[nH]ccc23)n1 (stereo not given) (library stock concentration (final ~1000-fold dilution): 10 mM),IRF Lucia reporter activity,[2]; [5],0.193
same,IRF Lucia reporter activity,[2]; agonist: LPS (TLR4) 0.1 ug/mL,1.39
CC(=O)N[C@@H](CS)C(=O)O (library stock concentration (final ~1000-fold dilution): 10 mM),IRF Lucia reporter activity,[2]; [5],1.03
same,IRF Lucia reporter activity,[2]; agonist: LPS (TLR4) 0.1 ug/mL,0.875
CCCC1CC(C(=O)NC(C(C)Cl)C2OC(SC)C(O)C(O)C2O)N(C)C1.Cl.O (stereo not given),IRF Lucia reporter activity,[1]; [4],1.05
CCCC1CC(C(=O)NC(C(C)Cl)C2OC(SC)C(O)C(O)C2O)N(C)C1.Cl.O (stereo not given) (library stock concentration (final ~1000-fold dilution): 10 mM),IRF Lucia reporter activity,[2]; [5],1.02
same,IRF Lucia reporter activity,[2]; agonist: LPS (TLR4) 0.1 ug/mL,0.872
CN1CCN(c2ccc(Nc3ncc4cc(C#N)c(=O)n(C5CCCC5)c4n3)cc2)CC1 (library stock concentration (final ~1000-fold dilution): 10 mM),IRF Lucia reporter activity,[2]; [5],0.0348
same,IRF Lucia reporter activity,[2]; agonist: LPS (TLR4) 0.1 ug/mL,0.0421
O=c1cc(-c2ccccc2)oc2cc(O)c(O)c(O)c12,IRF Lucia reporter activity,[1]; [4],0.932
O=c1cc(-c2ccccc2)oc2cc(O)c(O)c(O)c12 (library stock concentration (final ~1000-fold dilution): 10 mM),IRF Lucia reporter activity,[2]; [5],0.842
same,IRF Lucia reporter activity,[2]; agonist: LPS (TLR4) 0.1 ug/mL,0.954
CCN(CC)C(=O)C(c1ccccc1)N1CCN(c2ccc(NC(=O)c3ccccc3-c3cccnc3)cc2F)CC1 (stereo not given) (library stock concentration (final ~1000-fold dilution): 10 mM),IRF Lucia reporter activity,[2]; [5],1.05
same,IRF Lucia reporter activity,[2]; agonist: LPS (TLR4) 0.1 ug/mL,1.02
CCN(CC)C(=O)C(c1ccccc1)N1CCN(c2ccc(NC(=O)c3ccccc3-c3cccnc3)cc2F)CC1 (stereo not given),IRF Lucia reporter activity,[1]; [4],1.17
COc1ccc(C2OCC3C(c4ccc(OC)c(OC)c4)OCC23)cc1OC (stereo not given) (library stock concentration (final ~1000-fold dilution): 10 mM),IRF Lucia reporter activity,[2]; [5],1.35
same,IRF Lucia reporter activity,[2]; agonist: LPS (TLR4) 0.1 ug/mL,0.899
Cc1c(C)c2c(c(C)c1O)CCC(C)(C(=O)O)O2 (stereo not given) (library stock concentration (final ~1000-fold dilution): 10 mM),IRF Lucia reporter activity,[2]; [5],1.07 and 1.1
same,IRF Lucia reporter activity,[2]; agonist: LPS (TLR4) 0.1 ug/mL,0.982 and 0.759
Cc1c(C)c2c(c(C)c1O)CCC(C)(C(=O)O)O2 (stereo not given),IRF Lucia reporter activity,[1]; [4],1.06
CC(=O)OCC(=O)NCCCOc1cccc(CN2CCCCC2)c1.Cl (library stock concentration (final ~1000-fold dilution): 10 mM),IRF Lucia reporter activity,[2]; [5],1.06
same,IRF Lucia reporter activity,[2]; agonist: LPS (TLR4) 0.1 ug/mL,0.974
CC(=O)OCC(=O)NCCCOc1cccc(CN2CCCCC2)c1.Cl,IRF Lucia reporter activity,[1]; [4],0.94
N.S=C(S)N1CCCC1 (library stock concentration (final ~1000-fold dilution): 10 mM),IRF Lucia reporter activity,[2]; [5],0.705 ± 0.088
same,IRF Lucia reporter activity,[2]; agonist: LPS (TLR4) 0.1 ug/mL,1.261 ± 0.01
N.S=C(S)N1CCCC1,IRF Lucia reporter activity,[1]; [4],1.34 ± 0.037
CCOC1OC(=O)CC1NC(=O)C1CCCN1C(=O)C(NC(=O)c1ccc(N)c(Cl)c1)C(C)(C)C (stereo not given) (library stock concentration (final ~1000-fold dilution): 10 mM),IRF Lucia reporter activity,[2]; [5],0.945
same,IRF Lucia reporter activity,[2]; agonist: LPS (TLR4) 0.1 ug/mL,1.51
CCOC1OC(=O)CC1NC(=O)C1CCCN1C(=O)C(NC(=O)c1ccc(N)c(Cl)c1)C(C)(C)C (stereo not given),IRF Lucia reporter activity,[1]; [4],1.37
CN(C)C(CCOc1cccc2ccccc12)c1ccccc1.Cl (stereo not given),IRF Lucia reporter activity,"[1]; library stock concentration (final ~1000-fold dilution): 10 mM, cytotoxicity flag (confluency mask): cytotoxic (confluency <70% of control)",1.02
CN(C)C(CCOc1cccc2ccccc12)c1ccccc1.Cl (stereo not given) (library stock concentration (final ~1000-fold dilution): 10 mM),IRF Lucia reporter activity,[3]; [5],0.796
same,IRF Lucia reporter activity,[3]; agonist: LPS (TLR4) 0.1 ug/mL,0.92
CS(=O)(=O)c1ccc(-c2cnc(NCc3ccco3)n3cnnc23)cc1 (library stock concentration (final ~1000-fold dilution): 10 mM),IRF Lucia reporter activity,[2]; [5],0.73
same,IRF Lucia reporter activity,[2]; agonist: LPS (TLR4) 0.1 ug/mL,1.06
CCn1nc(C2CCN(C(=O)CCO)CC2)nc1-c1cnc(N)c(-c2nnc(C(C)(C)C)o2)n1 (library stock concentration (final ~1000-fold dilution): 10 mM),IRF Lucia reporter activity,[2]; [5],0.419
same,IRF Lucia reporter activity,[2]; agonist: LPS (TLR4) 0.1 ug/mL,1.09
Cc1nc2cc(F)c(F)cc2n1-c1cncc(Nc2ccc(C(F)(F)F)cc2)n1 (library stock concentration (final ~1000-fold dilution): 10 mM),IRF Lucia reporter activity,[2]; [5],0.237
same,IRF Lucia reporter activity,[2]; agonist: LPS (TLR4) 0.1 ug/mL,1.88
COc1cc2ncnc(Nc3ccc(F)c(Cl)c3)c2cc1OCCCN1CCOCC1.Cl (library stock concentration (final ~1000-fold dilution): 10 mM),IRF Lucia reporter activity,[2]; [5],0.73
same,IRF Lucia reporter activity,[2]; agonist: LPS (TLR4) 0.1 ug/mL,1.26
COc1cc2ncnc(Nc3ccc(F)c(Cl)c3)c2cc1OCCCN1CCOCC1.Cl,IRF Lucia reporter activity,[1]; [4],0.952
